# Test results taken from PubChem BioAssay AID1508623 (National Center for Advancing Translational Sciences (NCATS), 2021).
# In all, about 48,000 compounds went through this assay and about 450 (0.94%) were called active. About 19% were inconclusive and are not listed. Calls come from the whole dose curve; as a rule, active = well fitted inhibition curve with a large enough effect; inconclusive = small, poorly fitted or top-dose-only effect; inactive = no such curve, though single readings can be large or run the other way. The list shows a part of the results.
# Assay: Primary qHTS for Identification of Small Molecule Inhibitors of Huntingtin Promoter Activity; note: nearly all actives have a fitted effect of over 50% in size
# Details: HEK293 HTT promoter firefly luciferase reporter (activity 0% = vehicle and -100% = no light), 24 h; series mostly up to 57.5 µM; activity change, negative = inhibition: at the top concentration
# Outline: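 HEK293 luciferase promoter-reporter cells (2,500/well) plated 24 h, then compounds added at up to 57.5 uM final for 24 h at 37 °C. Firefly luminescence by Dual-Glo, normalized to vehicle (0%) and zero RLU (-100%).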
row,Structure (SMILES),"activity change, negative = inhibition"
1,Cc1ccc(S(=O)(=O)c2cn(CC(=O)Nc3ccc(C)c(Cl)c3)c3ccc(C)cc3c2=O)cc1,inactive: -14.3%
2,Cc1ccc(CNC(=O)C2CCCN(S(=O)(=O)c3ccc4c(c3)oc(=O)n4C)C2)cc1 (stereo not given),inactive: -8.08%
3,CCCS(=O)(=O)Nc1cc(-c2cn3cccc(C)c3n2)ccc1C,inactive: 17.9%
4,COc1ccc(-c2cc(C(F)(F)F)c(C#N)c(SCC(=O)Nc3ccc(F)cc3)n2)cc1,inactive: -15.6%
5,COc1ccc(-c2cn3nc(N4CCC(C(=O)NCc5ccccc5F)CC4)sc3n2)cc1,inactive: 21.3%
6,CCCNC(=O)c1ccc2c(c1)ncn2-c1ccc(C)cc1C,inactive: -9.41%
7,Cn1c(N2CCCCS2(=O)=O)nc(C(=O)NCc2ccc(F)cc2)c(O)c1=O,inactive: 4.5%
8,CCCC(O)C(CC)CO (stereo not given),inactive: 2.39%
9,CC(CN(C)C)CN1c2ccccc2CCc2ccccc21 (stereo not given),inactive: -2.92%
10,COP(=O)(OC)OC(c1ccc(Cl)cc1)P(=O)(OC)OC (stereo not given),inactive: 6.46%
11,CN(C)CCNC(=O)c1ccc(-n2c(-c3ccccc3)cc3c2CCCC3)cc1,inactive: -5.15%
12,Cc1nc(-c2ccccc2)sc1-c1ccc(SCC(=O)NCc2ccc(F)cc2)nn1,inactive: -0.884%
13,Cn1c(=O)c2c(SCC(=O)N3CCc4ccccc43)nc(-c3ccccc3Cl)nc2n(C)c1=O,inactive: 17.3%
14,Clc1ccc(-c2nc3sccn3c2C=NOCc2ccc(Cl)c(Cl)c2)cc1,inactive: -7.22%
15,CCC(CC)C(=O)NC1CC(=O)N(c2ccc3c(c2)OCCO3)C1 (stereo not given),inactive: -15.5%
16,CCOc1ccc(-n2c(SCC(=O)N3CCCC3)nc3c([nH]c4ccccc43)c2=O)cc1,inactive: -2.9%
17,COC(=O)C(Cc1c[nH]c2ccccc12)NC(=O)COc1ccc(Cl)cc1Cl (stereo not given),inactive: -27.2%
18,CCOc1ccc(-n2c(CCC(=O)O)ccc2-c2ccc(Br)cc2)cc1,inactive: 0.497%
19,CCc1ccc(CNC(=O)CCSCc2ccccc2F)cc1,inactive: -26%
20,Cc1cccc(NS(=O)(=O)c2ccc3[nH]c(=O)ccc3c2)c1C,inactive: -16.1%
21,COc1ccccc1OCCn1c(-c2ccc(Cl)cc2)nc2ccccc2c1=O,inactive: -4.31%
22,COc1ccc(C(=O)c2cn(CC(=O)Nc3ccc4c(c3)OCCO4)c3ccc(OC)cc3c2=O)cc1,inactive: -19.8%
23,COc1cccc(C2=CC(c3ccc(OC)c(OC)c3OC)n3ncnc3N2)c1 (stereo not given),inactive: -7.19% [at 11.5 µM]
24,CCN(C(=O)Cc1nc(-c2ccc(OC)cc2)no1)c1cccc(Cl)c1,inactive: -18.5%

row,Structure (SMILES),"activity change, negative = inhibition"
1,O=C(Cn1c(=O)nc(-c2ccccc2)c2ccccc21)Nc1ccc(Cl)c(C(F)(F)F)c1,inactive: -12.9%
2,CCC(C)NC(=O)Cn1ncc2c([nH]c3ccc(C)cc32)c1=O (stereo not given),inactive: -16.5%
3,COc1cccc(-c2ccc3c(N)c(C(=O)c4ccc(Cl)cc4)sc3n2)c1,inactive: -11.2%
4,CCc1cccc(NC(=O)Cn2nc(-c3ccc(OC)cc3)ccc2=O)c1,inactive: 4.89%
5,CCOc1ccccc1NC(=O)Cn1c(=O)n(Cc2ccccc2)c(=O)c2c(C)c(C)sc21,inactive: -18.8%
6,CCOC(=O)c1ccc(N2C(=O)c3n[nH]c(-c4cccs4)c3C2c2ccc(C(C)(C)C)cc2)cc1 (stereo not given),inactive: -8.31%
7,O=C(Nc1nc2n(n1)C(c1ccccc1)C=C(c1ccccc1)N2)c1ccc(Cl)c([N+](=O)[O-])c1 (stereo not given),inactive: -14%
8,Cc1ccc(NC(=O)c2c(C)oc3ccc(O)c(CN4CCCCCC4)c23)c(C)c1,inactive: -29.6%
9,CCOC(=O)c1[nH]c(C)c(CCC(=O)NCc2ccc(OCC)cc2)c1C,inactive: -7.5%
10,CC(C)OCCCNC(=O)c1cc2c(-c3ccc(Cl)cc3)nn(C)c2s1,inactive: -29.9%
11,COc1cc(NC(=O)C2CCCN(S(=O)(=O)c3ccc4c(c3)oc(=O)n4C)C2)c(C(=O)O)cc1OC (stereo not given),inactive: -12.2%
12,CCc1ccc(NC(=O)C(=O)NCCc2csc(-c3ccc(C(F)(F)F)cc3)n2)cc1,inactive: 7.26%
13,Cc1cc(C)c(NC(=O)Cn2c(=O)n(Cc3ccc4c(c3)OCO4)c(=O)c3ccc(C(=O)NC4CCCCC4)cc32)c(C)c1,inactive: -0.164%
14,O=C(NCc1ccccc1F)c1ccc(CN2CC(=O)N3CCCCC3C2=O)cc1 (stereo not given),inactive: -19.3%
15,N#C/C(=C\c1ccc(Cl)cc1)c1nc(-c2cc3ccccc3oc2=O)cs1,inactive: 0.575%
16,CCOC(=O)c1sc2cccc(F)c2c1S(=O)(=O)N1CCN(c2cccc(Cl)c2)CC1,inactive: -7.83%
17,CCc1ccc(CNC(=O)c2cnc3sc4cc(OC)ccc4n3c2=O)cc1,inactive: -2.11%
18,CCCn1c2ccccc2c2cnn(CC(=O)N3CCC(C)CC3)c(=O)c21,inactive: -5.2%
19,COc1ccc(Nc2ncc3c(n2)CCN(Cc2cc(Br)cs2)C3)c(OC)c1,inactive: -16.8%
20,CC(C)C(=O)c1c(C(C)C)nn2ccccc12,inactive: 14.3%
21,COc1ccccc1NC(=O)c1cc2c(=O)oc3ccc(C)cc3c2s1,inactive: -4.54%
22,CCCCOc1ccccc1C(=O)N(Cc1ccc(C)o1)C1CCS(=O)(=O)C1 (stereo not given),inactive: -17.8%
23,Cc1ccc(NC(=O)CSc2nc3c(oc4ccccc43)c(=O)n2-c2ccc(F)cc2)c(C)c1,inactive: -26.1%
24,COCCCNC(=O)CCCCn1c(=O)c2ccccc2n(CC(=O)Nc2ccc(C)cc2C)c1=O,inactive: -10.7%

row,Structure (SMILES),"activity change, negative = inhibition"
1,Cc1cccn2c(=O)c3cc(C#N)c(=O)n(-c4nnc(SCc5ccccc5F)s4)c3nc12,inactive: -9.15%
2,COCCNC(=O)CSc1nc2cc3c(cc2c(=O)n1CCCCCC(=O)NCc1ccc(OC)cc1)OCO3,inactive: -6.87%
3,COc1ccc(CNC(=O)c2ccc3c(c2)nc2n3CCC(C)C2)c(OC)c1 (stereo not given),inactive: 11.6%
4,CCOc1ccccc1NC(=O)Cn1nnc2sc(-c3ccccc3)cc2c1=O,inactive: 10.7%
5,CC(C(=O)NCc1ccccc1F)n1ccc2cc(S(=O)(=O)N3CCCC3)ccc21 (stereo not given),inactive: -27.3%
6,CCOc1ccccc1NC(=O)c1c(NC(=O)c2cccc(C)c2)sc2c1CCCC2,inactive: 2.38%
7,CCc1ccccc1NC(=O)Nc1cc(C(=O)NCc2ccc(C)cc2)ccc1N1CCCC1,inactive: 3.46%
8,CC1CN(C(=O)Nc2ccc(C(=O)NCc3cccc(F)c3)cc2)c2ccccc2S1 (stereo not given),inactive: -19.3%
9,O=C(Nc1ccc(C(F)(F)F)cc1)C1CCCN(c2cnccn2)C1 (stereo not given),inactive: -4.94%
10,O=C(Nc1ccccc1Cl)N1CCC(CN2CCCCC2)CC1,inactive: -10.4%
11,C[C@H]1[C@H]2CC[C@H]3[C@@H]4CC=C5C[C@@H](N(C)C)CC[C@]5(C)[C@H]4CC[C@]23CN1C,inactive: -8.22%
12,COc1ccc(N2CCN(c3oc(/C=C/c4cc(OC)c(OC)c(OC)c4)nc3C#N)CC2)cc1,inactive: -8.49%
13,COc1cc(C(=O)Nc2ccc3oc(-c4ccc(C)c(Br)c4)nc3c2)cc(OC)c1OC,inactive: 2.2%
14,Cc1cc(C)cc(Oc2nc3c(c(=O)n(C)c(=O)n3C)n2Cc2ccc(F)cc2)c1,inactive: -2.73% [at 11.5 µM]
15,CCOC(=O)c1ccccc1NC(=O)N(C)CCc1c(C)nn(CC)c1C,inactive: 43.1%
16,CCc1nnc(SCC(=O)Nc2ccc(F)cc2F)c2cc3sc(C)cc3n12,inactive: 8.73%
17,Cc1cc(OCC(=O)N(Cc2sccc2C)C2CCS(=O)(=O)C2)ccc1Cl (stereo not given),inactive: -29%
18,COc1ccc(Nc2cc(C(=O)NCc3ccccc3OC)c3ccccc3n2)cc1,inactive: 0.281%
19,Cc1cc(C)c2c(CC(=O)Nc3c(C(=O)Nc4ccc(Cl)cc4)oc4ccccc34)coc2c1,inactive: 26.5%
20,COc1ccc(CNC(=O)CN2C(=O)c3cccnc3Oc3ccc(C)cc32)cc1,inactive: 6.12%
21,CCCSCCCNC(=O)c1ccc2nc(Cc3ccccc3)oc2c1,inactive: 0%
22,CCc1ccc(CNC(=O)CN2CCSc3ccccc32)cc1,inactive: -19%
23,CCOC(=O)N1CCc2c(sc3c2c(=O)n(CCc2ccccc2)c(=O)n3Cc2c(F)cccc2Cl)C1,inactive: -6.17%
24,O=C(CN1C(=O)COc2ccc(S(=O)(=O)N3CCCCCC3)cc21)NCc1ccc(F)cc1,inactive: -14.3%

row,Structure (SMILES),"activity change, negative = inhibition"
1,Cc1cc(C)c2c(CC(=O)N(Cc3ccccc3)C3CCS(=O)(=O)C3)coc2c1 (stereo not given),inactive: -26.7%
2,Cc1cc(C)cc(OCC(=O)Nc2ccc(-c3nc4ccccc4o3)cc2)c1,inactive: 24.9%
3,CCC(=O)N1CCc2cc(S(=O)(=O)NC(C(=O)Nc3ccc(C(C)=O)cc3)C(C)C)ccc21 (stereo not given),inactive: 7.87%
4,Cn1c(=O)oc2cc(S(=O)(=O)Nc3ccc(C(=O)O)cc3)ccc21,inactive: 0.647%
5,Cc1ccc(OCC(=O)Nc2ccc3nc(SCC(=O)N4CCc5ccccc54)sc3c2)cc1,inactive: -9.76%
6,COc1ccc(NC(=O)c2cccn2-c2nnc(N3CCCCC3)s2)cc1,inactive: 34.9%
7,CCOC(=O)C1CCCN(c2nc3c(S(=O)(=O)c4ccc(C)c(C)c4)nnn3c3ccc(Cl)cc23)C1 (stereo not given),inactive: -2.36%
8,CCn1c(=O)c2sccc2n2c(CCC(=O)Nc3cc(C)cc(C)c3)nnc12,inactive: -10.4%
9,COc1ccc(-c2nc(CS(=O)CC(=O)NCc3ccccc3OC)c(C)o2)cc1 (stereo not given),inactive: 4.2%
10,COc1ccc2c(c1)CC(C(=O)NCCCN1CCN(c3ccc(F)cc3)CC1)CO2 (stereo not given),inactive: -37.4%
11,COc1cccc(N2CCN(C(=O)C3CCN(S(=O)(=O)c4ccc5c(c4)oc(=O)n5C)CC3)CC2)c1,inactive: -25.1%
12,COc1cccc(C(=O)Nc2cc3c(cc2C(=O)c2ccc(C)cc2)OCCO3)c1,inactive: -6.33%
13,COC(=O)Cn1c(=O)c2c(nc3n2CCN3c2ccc(F)cc2)n(C)c1=O,inactive: -11.3%
14,O=C(NCc1ccccc1Cl)NCc1noc2ccccc12,inactive: 29.5%
15,Cc1ccccc1NC(=O)Cn1c(=O)n(CC2CCC(C(=O)NCCc3ccccc3)CC2)c(=O)c2ccccc21 (stereo not given),inactive: -6.68%
16,Cc1ccc(CNS(=O)(=O)c2ccc(-c3cc(C(F)(F)F)on3)s2)cc1,inactive: 4.73%
17,Nc1c(C(=O)Nc2ccccc2)nnn1Cc1ccc(F)cc1Cl,inactive: 60.4%
18,Cc1ccc(N2C(=O)[C@@H]3CSC(c4ccc(F)cc4)N3C2=O)cc1 (stereo not given in full),inactive: -33.7%
19,CCOc1ccccc1C(=O)Nc1nc2c(s1)CC(C)CC2 (stereo not given),inactive: 33.8%
20,Cc1ccc(C(=O)Nc2cc3c(cc2N2CCCC2)n(C)c(=O)c(=O)n3C)cc1,inactive: -7.69%
21,Cc1nn(C(C)(C)C)c(OC(=O)C(C)(C)C)c1Sc1ccccc1,inactive: -13.9%
22,CC(=O)Nc1ccc(NC(=O)Cn2nc(C(=O)Nc3ccc(C)cc3)ccc2=O)cc1,inactive: 5.58%
23,CCOc1ccc(-c2cc3c(=O)n(CC(=O)NCc4ccc(Cl)cc4)ccn3n2)cc1,inactive: 7.93%
